# Experimental data from PubChem BioAssay AID652104 (National Center for Advancing Translational Sciences (NCATS), 2013).
# Among all 410,000 compounds or so, about 7,200 (1.8%) were called active. Inconclusive means that the source gave no clear call. Such entries were picked first, then a sample of the others. Calls follow the shape of the dose curve; as a rule, active = well fitted activation curve with a large enough effect; inconclusive = small, poorly fitted or top-dose-only effect, or another doubt; inactive = no such curve, though single readings can be large or run the other way. No potency is given beside an inconclusive call; the fits are too rough.
# Assay: qHTS of TDP-43 Inhibitors; also: nearly all actives have a fitted effect of over 50% in size; as to growth rescue (activation): % of control where 0% means no effect
# Settings: TDP-43 expressing yeast growth rescue, BacTiter-Glo, 24 h; growth rescue (activation): at 46.1 µM (top of the series) unless noted
# Outline: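 Growth rescue of TDP-43-toxic yeast measured as ATP luminescence (BacTiter-Glo). Cells grown to mid-log in raffinose, induced in galactose at OD600=0.02, exposed to compound 24 hr at 30 deg C.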
# Potency is read from the fitted curve at half-maximal effect; tags tell the direction and shape of the fitted curve.
SMILES,Potency,growth rescue (activation)
COc1cc(SC)ccc1C(=O)Nc1ccc(C)cc1,"inconclusive [activator, partial curve]",
Cc1ccc(CC(=O)N2CCN(c3cccc(C(F)(F)F)c3)CC2)cc1,"inconclusive [activator, single point]",
c1ccc(-c2csc(Nc3ccccn3)n2)cc1,"inconclusive [activator, single point]",
Cn1cc(SCC(=O)N2CCN(c3ccccc3)CC2)c2ccccc21,"inconclusive [activator, partial curve]",
O=[N+]([O-])c1ccc2c(c1)C(N1CCOCC1)/C(=C/COc1ccc(Cl)cc1Cl)O2 (stereo not drawn),"inconclusive [activator, single point]",
O=C1CCCc2c1ccc1ccccc21,"inconclusive [activator, single point]",
COc1ccc(OC)c(-c2cc(C(=O)NC(C)c3ccccc3)no2)c1 (stereo not drawn),"inconclusive [activator, partial curve]",
CC(=O)/C=C/c1ccccc1Oc1c(F)c(F)nc(F)c1F,"inconclusive [activator, single point]",
O=C(c1ccccc1)n1ccc(-c2cccs2)n1,"inconclusive [activator, single point]",
CN(C(=O)C(=O)Nc1ccc2nc3n(c(=O)c2c1)CCCCC3)c1cccc(C(F)(F)F)c1,"inconclusive [activator, partial curve]",
CC(C)Sc1ncc(Cl)c(C(=O)Nc2nnc(C(C)C)s2)n1,"inconclusive [activator, single point]",
CCc1ccc(NC(=O)Cn2c(=O)oc3cc(S(=O)(=O)N4CCCCCC4)ccc32)cc1,inactive,
Cc1onc(-c2ccc(F)cc2F)c1C(=O)Nc1cccc(C(F)(F)F)c1,"inconclusive [activator, single point]",
CCc1nc(N2CCN(C(=S)NCCCOC)CC2)c2c3c(sc2n1)CCCC3,"inconclusive [activator, single point]",
COc1ccc(-c2ccc(C(=O)NC3CCCCC3)c3occc23)c(C)c1,active: 12.6 µM,
CC1CN(c2oc(Cc3cccc4ccccc34)nc2C#N)CC(C)O1 (stereo not drawn),"inconclusive [activator, single point]",
Cc1cnc(C(=O)Nc2ccc(-n3cnnn3)cc2)cn1,"inconclusive [activator, single point]",
CCCCCC1(C)NC(=S)N(c2ccccc2)N1 (stereo not drawn),,inconclusive: 30.3% [activator]
